Reference: patent publication US20210187105A1, “COMBINATION THERAPY OF ANTI-MIF ANTIBODIES AND GLUCOCORTICOIDS” (Baxalta Incorporated, priority 2012, published 2021)

What was measured:
[1] = molecular target: T1, oxMIF (Homo sapiens, UniProt P14174); assay: Differential binding of anti-MIF antibodies to oxMIF (ELISA / Biacore surface plasmon resonance)
T1 sequence (P14174 1-115): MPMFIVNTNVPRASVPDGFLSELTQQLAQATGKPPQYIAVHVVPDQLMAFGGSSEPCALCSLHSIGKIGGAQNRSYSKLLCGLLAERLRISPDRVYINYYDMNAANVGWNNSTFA
Method: (§1) The anti-oxMIF antibodies described in this invention are able to discriminate between ox and red MIF, which are generated by mild oxidation or reduction, respectively. The anti-oxMIF antibodies are useful to specifically detect oxMIF. Discrimination between these conformers is assessed by ELISA or surface plasmon resonance. Both techniques can be performed as well known to a person skilled in the art and as described below.
(§2) The antibodies were coated on a CM5 (=carboxymethylated dextran) chip and recombinant MIF protein, pre-incubated with 0.2% Proclin300, were injected. (Proclin300 consists of oxidative isothiazolones that stabilize the oxMIF structure).

[2] = molecular target: T2, redMIF (Homo sapiens, UniProt P14174); assay: Differential binding of anti-MIF antibodies to redMIF (ELISA / Biacore surface plasmon resonance); conditions: for binding of recombinant MIF proteins to coated antibody (Biacore): native HBS-EP buffer without addition of ProClin300
T2 sequence (P14174 1-115): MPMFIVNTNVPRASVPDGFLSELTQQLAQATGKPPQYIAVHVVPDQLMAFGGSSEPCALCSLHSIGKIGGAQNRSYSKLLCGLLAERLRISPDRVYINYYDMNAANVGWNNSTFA
Method: as §1, §2

[3] = tested on: immune mediated-nephrotoxic nephritis (NTN) in Wistar Kyoto (WKY) rats; assay: Animal model for crescentic glomerulonephritis (nephrotoxic nephritis); type: in vivo, rat; conditions: days 4 and 6 after induction; for reduction of albuminuria / reduction of crescent counts / reduction of macrophage infiltration: day 8
Source text: This model is recognized in the art as predictable to show the effects of the invention. It is suitable to show the effects of the combination therapy over the complete range of diseases which can be subsumed under the above definition of “MIF related diseases” particularly, this model is suitable for the following diseases: Lupus nephritis, anti-GBM nephritis, ANCA nephritis, IgA nephropathy. Dexamethasone is recognized in the art as predictive for a respective glucocorticoid in the treatment of a human. […] This model has a rapid onset of disease with macrophage infiltration, fibrin deposition and tissue destruction 12. NTN is induced in male WKY rats by single intravenous injection of 0.1 ml rabbit anti-rat glomerular basement membrane serum (day 0). mAb and Dexamethasone is injected intraperitoneally at time points and dosages described below. 24 hour urine samples are collected using metabolic cages before induction of glomerulonephritis and at various time intervals after induction of nephritis for quantification of proteinuria. Sections of renal tissues are frozen for subsequent analysis by immunohistology. Morphology of renal injury is assessed in haematoxylin/eosin (H&E) and periodic acid-Schiff (PAS) stained renal tissue sections. Macrophage is detected by immunoperoxidase technique and using the monoclonal mouse antibody ED1 (Serotec, U C). The animal model was described in detail (Tam F W K, Smith J, Morel D, Karkar A M, Thompson E M, Cook H T, Pusey C D: Development of scarring and renal failure in a rat model of crescentic glomerulonephritis. Nephrol Dial Transplant 14:1658-1666, 1999).

B1: RAB0: anti-oxMIF antibody (IgG4); light chain SEQ ID NO: 3, heavy chain SEQ ID NO: 7; plasmids DSM 25114 and DSM 25115 (antibody)
heavy: EVQLLESGGGLVQPGGSLRLSCAASGFTFSWYAMDWVRQAPGKGLEWVSGIYPSGGRTKYADSVKGRFTISRDNSKNTLYLQMNSLRAEDTAVYYCARVNVIAVAGTGYYYYGMDVWGQGTTVTVSSASTKGPSVFPLAPCSRSTSESTAALGCLVKDYFPEPVTVSWNSGALTSGVHTFPAVLQSSGLYSLSSVVTVPSSSLGTKTYTCNVDHKPSNTKVDKRV[sequence of human IgG4 Fc with S228P (EU numbers) not given]
light: DIQMTQSPGTLSLSPGERATLSCRASQGVSSSSLAWYQQKPGQAPRLLIYGTSSRATGIPDRFSGSASGTDFTLTISRLQPEDFAVYYCQQYGRSLTFGGGTKVEIKRTVAAPSVFIFPPSDEQLKSGTASVVCLLNNFYPREAKVQWKVDNALQSGNSQESVTEQDSKDSTYSLSSTLTLSKADYEKHKVYACEVTHQGLSSPVTKSFNRGEC
modifications: Heavy chain of RAB0; Light chain of RAB0
notes: anti-oxMIF antibody (IgG4); plasmids DSM 25114 and DSM 25115
B1 was tested, and the “binding to oxMIF” value [1] was “specifically bind to oxMIF”, the “binding to redMIF (MIF in its reduced state)” value [2] was “incapable of binding to redMIF” and the “binding of recombinant MIF proteins to coated antibody (Biacore)” value [2] was “none of the recombinant MIF proteins bound”.

B2: RAM0: anti-oxMIF antibody; heavy chain SEQ ID NO: 9, light chain SEQ ID NO: 10; same specificity as RAB0 (antibody)
heavy: EVQLLESGGGLVQPGGSLRLSCAASGFTFSWYAMDWVRQAPGKGLEWVSGIYPSGGRTKYADSVKGRFTISRDNSKNTLYLQMNSLRAEDTAVYYCARVNVIAVAGTGYYYYGMDVWGQGTTVTVSSASTKGPSVFPLAPSSKSTSGGTAALGCLVKDYFPEPVTVSWNSGALTSGVHTFPAVLQSSGLYSLSSVVTVPSSSLGTQTYICNVNHKPSNTKVDKRV[sequence of human IgG1 Fc not given]
light: DIQMTQSPGTLSLSPGERATLSCRASQGVSSSSLAWYQQKPGQAPRLLIYGTSSRATGIPDRFSGSASGTDFTLTISRLQPEDFAVYYCQQYGRSLTFGGGTKVEIKRTVAAPSVFIFPPSDEQLKSGTASVVCLLNNFYPREAKVQWKVDNALQSGNSQESVTEQDSKDSTYSLSSTLTLSKADYEKHKVYACEVTHQGLSSPVTKSFNRGEC
modifications: RAM0hc; RAM0lc
notes: anti-oxMIF antibody; same specificity as RAB0
With B2 the “binding to oxMIF” value [1] was “This binding is also observed” and the “binding to redMIF (MIF in its reduced state)” value [2] was “do not bind to unmodified MIF in its reduced state”.

B3: RAM4: anti-oxMIF antibody; heavy chain SEQ ID NO: 13, light chain SEQ ID NO: 14; same specificity as RAB4 (antibody)
heavy: EVQLLESGGGLVQPGGSLRLSCAASGFTFSIYAMDWVRQAPGKGLEWVSGIVPSGGFTKYADSVKGRFTISRDNSKNTLYLQMNSLRAEDTAVYYCARVNVIAVAGTGYYYYGMDVWGQGTTVTVSSASTKGPSVFPLAPSSKSTSGGTAALGCLVKDYFPEPVTVSWNSGALTSGVHTFPAVLQSSGLYSLSSVVTVPSSSLGTQTYICNVNHKPSNTKVDKRV[sequence of human IgG1 Fc not given]
light: DIQMTQSPGTLSLSPGERATLSCRASQGVSSSSLAWYQQKPGQAPRLLIYGTSSRATGIPDRFSGSASGTDFTLTISRLQPEDFAVYYCQQYGRSLTFGGGTKVEIKRTVAAPSVFIFPPSDEQLKSGTASVVCLLNNFYPREAKVQWKVDNALQSGNSQESVTEQDSKDSTYSLSSTLTLSKADYEKHKVYACEVTHQGLSSPVTKSFNRGEC
modifications: RAM4hc; RAM4lc
notes: anti-oxMIF antibody; same specificity as RAB4
In the case of B3, the “binding to oxMIF” value [1] is reported as “This binding is also observed” and the “binding to redMIF (MIF in its reduced state)” value [2] is reported as “do not bind to unmodified MIF in its reduced state”.

B4: RAB4: anti-oxMIF antibody (IgG4); light chain SEQ ID NO: 2, heavy chain SEQ ID NO: 6; plasmids DSM 25110 and DSM 25112 (antibody)
heavy: EVQLLESGGGLVQPGGSLRLSCAASGFTFSIYAMDWVRQAPGKGLEWVSGIVPSGGFTKYADSVKGRFTISRDNSKNTLYLQMNSLRAEDTAVYYCARVNVIAVAGTGYYYYGMDVWGQGTTVTVSSASTKGPSVFPLAPCSRSTSESTAALGCLVKDYFPEPVTVSWNSGALTSGVHTFPAVLQSSGLYSLSSVVTVPSSSLGTKTYTCNVDHKPSNTKVDKRV[sequence of human IgG4 Fc with S228P (EU numbers) not given]
light: DIQMTQSPGTLSLSPGERATLSCRASQGVSSSSLAWYQQKPGQAPRLLIYGTSSRATGIPDRFSGSASGTDFTLTISRLQPEDFAVYYCQQYGRSLTFGGGTKVEIKRTVAAPSVFIFPPSDEQLKSGTASVVCLLNNFYPREAKVQWKVDNALQSGNSQESVTEQDSKDSTYSLSSTLTLSKADYEKHKVYACEVTHQGLSSPVTKSFNRGEC
modifications: Heavy chain of RAB4; Light chain of RAB4
notes: anti-oxMIF antibody (IgG4); plasmids DSM 25110 and DSM 25112
With B4 the “binding to oxMIF” value [1] was “specifically bind to oxMIF” and the “binding to redMIF (MIF in its reduced state)” value [2] was “incapable of binding to redMIF”.

B5: RAB9: anti-oxMIF antibody (IgG4); light chain SEQ ID NO: 1, heavy chain SEQ ID NO: 5; plasmids DSM 25111 and DSM 25113 (antibody)
heavy: EVQLLESGGGLVQPGGSLRLSCAASGFTFSIYSMNWVRQAPGKGLEWVSSIGSSGGTTYYADSVKGRFTISRDNSKNTLYLQMNSLRAEDTAVYYCAGSQWLYGMDVWGQGTTVTVSSASTKGPSVFPLAPCSRSTSESTAALGCLVKDYFPEPVTVSWNSGALTSGVHTFPAVLQSSGLYSLSSVVTVPSSSLGTKTYTCNVDHKPSNTKVDKRV[sequence of human IgG4 Fc with S228P (EU numbers) not given]
light: DIQMTQSPSSLSASVGDRVTITCRSSQRIMTYLNWYQQKPGKAPKLLIFVASHSQSGVPSRFRGSGSETDFTLTISGLQPEDSATYYCQQSFWTPLTFGGGTKVEIKRTVAAPSVFIFPPSDEQLKSGTASVVCLLNNFYPREAKVQWKVDNALQSGNSQESVTEQDSKDSTYSLSSTLTLSKADYEKHKVYACEVTHQGLSSPVTKSFNRGEC
modifications: Heavy chain of RAB9; Light chain of RAB9
notes: anti-oxMIF antibody (IgG4); plasmids DSM 25111 and DSM 25113
In the case of B5, the “binding to oxMIF” value [1] is reported as “specifically bind to oxMIF”, the “binding to redMIF (MIF in its reduced state)” value [2] is reported as “incapable of binding to redMIF” and the “binding of recombinant MIF proteins to coated antibody (Biacore)” value [2] is reported as “none of the recombinant MIF proteins bound”.

B6: RAM9: anti-oxMIF antibody; heavy chain SEQ ID NO: 11, light chain SEQ ID NO: 12; same specificity as RAB9 (antibody)
heavy: EVQLLESGGGLVQPGGSLRLSCAASGFTFSIYSMNWVRQAPGKGLEWVSSIGSSGGTTYYADSVKGRFTISRDNSKNTLYLQMNSLRAEDTAVYYCAGSQWLYGMDVWGQGTTVTVSSASTKGPSVFPLAPSSKSTSGGTAALGCLVKDYFPEPVTVSWNSGALTSGVHTFPAVLQSSGLYSLSSVVTVPSSSLGTQTYICNVNHKPSNTKVDKRV[sequence of human IgG1 Fc not given]
light: DIQMTQSPSSLSASVGDRVTITCRSSQRIMTYLNWYQQKPGKAPKLLIFVASHSQSGVPSRFRGSGSETDFTLTISGLQPEDSATYYCQQSFWTPLTFGGGTKVEIKRTVAAPSVFIFPPSDEQLKSGTASVVCLLNNFYPREAKVQWKVDNALQSGNSQESVTEQDSKDSTYSLSSTLTLSKADYEKHKVYACEVTHQGLSSPVTKSFNRGEC
modifications: RAM9hc; RAM9lc
notes: anti-oxMIF antibody; same specificity as RAB9
In the case of B6, the “binding to oxMIF” value [1] is reported as “This binding is also observed”, the “binding to redMIF (MIF in its reduced state)” value [2] is reported as “do not bind to unmodified MIF in its reduced state” and the reduction of albuminuria ([3]; 60 mg/kg intraperitoneal) is reported as “approx. 22%”. The “reduction of crescent counts” value ([3]; 60 mg/kg intraperitoneal) was “approximately 10%”, the “reduction of macrophage infiltration” value ([3]; 60 mg/kg intraperitoneal) was “approximately 26%” and the reduction of albuminuria ([3]; 120 mg/kg intraperitoneal) was “approx. 25%”. The “reduction of crescent counts” value ([3]; 120 mg/kg intraperitoneal) was “approximately 12%”, the “reduction of macrophage infiltration” value ([3]; 120 mg/kg intraperitoneal) was “approximately 38%” and the 11-13 in urine ([3]; intraperitoneal) was “reduced”. For the same molecule, the MIF in urine ([3]; intraperitoneal) was “reduced” and the TNFα in urine ([3]; intraperitoneal) was “reduced”.
